Where “and” joins values, the source holds several entries; their conditions need not be identical. Equal entries are not always repeated. About 230 (0.21%) of roughly 110,000 compounds showed an effect of 50% or more. Some of the results follow.
Molecular target: DPAP1 (Plasmodium falciparum, UniProt Q8IIJ9)
Test: primary screen, percent inhibition; read by cleavage of a fluorogenic dipeptide substrate; higher = more effect of the substance
Set-up: species or system P. falciparum D10 trophozoite lysates; single well
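Further: 30 min substrate incubation versus DMSO and 10 µM JCP410 controls.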

Sequence of DPAP1 (Q8IIJ9 whole entry, looked up): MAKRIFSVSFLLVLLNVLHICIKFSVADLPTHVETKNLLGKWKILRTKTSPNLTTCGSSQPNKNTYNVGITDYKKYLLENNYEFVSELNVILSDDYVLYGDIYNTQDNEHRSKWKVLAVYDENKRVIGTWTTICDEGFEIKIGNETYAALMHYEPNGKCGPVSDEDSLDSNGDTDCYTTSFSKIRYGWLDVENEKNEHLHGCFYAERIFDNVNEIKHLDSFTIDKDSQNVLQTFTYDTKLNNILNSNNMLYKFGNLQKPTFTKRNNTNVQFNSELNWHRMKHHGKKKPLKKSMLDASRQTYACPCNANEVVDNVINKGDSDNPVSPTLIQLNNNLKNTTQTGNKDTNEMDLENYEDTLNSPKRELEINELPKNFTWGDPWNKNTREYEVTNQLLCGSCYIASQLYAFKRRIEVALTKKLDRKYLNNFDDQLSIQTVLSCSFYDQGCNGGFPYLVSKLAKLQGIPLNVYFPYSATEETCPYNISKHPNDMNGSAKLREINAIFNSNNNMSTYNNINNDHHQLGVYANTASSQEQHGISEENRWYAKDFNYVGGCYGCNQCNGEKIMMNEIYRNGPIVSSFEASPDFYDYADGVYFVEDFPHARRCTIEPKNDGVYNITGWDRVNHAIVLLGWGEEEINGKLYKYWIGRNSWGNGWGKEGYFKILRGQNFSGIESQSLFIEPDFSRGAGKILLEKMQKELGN

Row | Structure (SMILES) | % Inhibition @ 10 uM
1 | CCCOc1ccc(N2C(=O)CC(NCCc3ccccc3)C2=O)cc1 (stereo not shown) | -0.28%
2 | CCCCn1cnc2scc(-c3ccc(C)cc3)c2c1=O | 7.33% and 1.19%
3 | O=C(c1sc2ccccc2c1Cl)N1CCC(Cc2ccccc2)CC1 | 1.88%
4 | Cc1ccc2c(Cl)c(C(=O)N3CCN(c4ccc([N+](=O)[O-])cc4)CC3)sc2c1 | 3.76%
5 | N#Cc1c(NC(=O)Nc2ccc(Cl)cc2)sc2c1CCC2 | 2.67%
6 | C=CCN1C(=O)/C(=C\c2ccc(N(CC)CC)cc2O)SC1=S | -5.62%
7 | CC(=O)Nc1ccc(NC(=O)c2cccc(Cl)c2Cl)cc1 | 3.74%
8 | CCC(C)NC(=O)Cn1ncc2c3ccccc3n(Cc3ccccc3)c2c1=O (stereo not shown) | -1.58%
9 | COc1ccc(CCNC(=O)C2(S(=O)(=O)c3ccc(Cl)cc3)CC2)cc1OC | -0.668%
10 | CN1C2CCC1CC(NCc1ccccc1)C2 (stereo not shown) | 0.986%
11 | Cc1ccc2c(c1C)OC(=O)CC2c1ccccc1 (stereo not shown) | 4.61%
12 | COc1ccccc1-c1cc(-c2ccccc2)nc(SC(C(N)=O)c2ccccc2)c1C#N (stereo not shown) | 6.18%
13 | Cc1ccc(S(=O)(=O)Nc2ccc(NC(=O)C3CCCCC3C(=O)O)cc2)cc1 (stereo not shown) | -3.45%
14 | CC(C)(C)NC(=O)c1cccc2c1C(=O)N(C1CCCCC1)C2 | -1.03%
15 | CC(C)(C)C(=O)CC(c1ccc(Cl)cc1)C1C(=O)c2ccccc2C1=O (stereo not shown) | 11.4%
16 | COC(=O)C1=C(O)/C(=C/c2ccc(OCC(=O)NC3CCCCC3)cc2)N=C1C | -3.4%
17 | CS(=O)(=O)N(CC(=O)Nc1cccnc1)c1ccccc1Br | 2.82%
18 | CCOC(=O)C1=C(COc2ccc(F)cc2Cl)NC(=O)NC1c1ccc2c(c1)OCO2 (stereo not shown) | -4.04%
19 | COCCN1C(=O)c2ccccc2C(C(=O)NC2CCCC(C)C2C)C1c1cccs1 (stereo not shown) | 3.54%
20 | OC(COc1ccc(Br)cc1)CN1CCN(Cc2ccc(Cl)cc2)CC1 (stereo not shown) | -1.36%
21 | COc1ccc(CCNC(=O)C2CCCN(S(=O)(=O)N3CCCCC3)C2)c(OC)c1 (stereo not shown) | -1.38%
22 | Cc1nn(C(C)C(=O)NC(C)c2ccccc2)c(=O)c2cc3occc3n12 (stereo not shown) | -3.79%
23 | COCCNC(=O)/C(C#N)=C/c1c(Oc2ccc(Br)cc2)nc2c(C)cccn2c1=O | -3.23%
24 | CC(C)CCN(CCOC(=O)Nc1ccccc1)C(=O)Nc1ccccc1 | 2.62%
25 | COC(=O)C1=CN(Cc2cccs2)C=C(C(=O)OC)C1c1ccc(C(F)(F)F)cc1 | 3.47%

Row | Structure (SMILES) | % Inhibition @ 10 uM
26 | CCSC1=NSC2=NC(=O)/C(=C\c3ccc4c(c3)OCO4)C(=N)N12 | -5.51%
27 | Oc1nc(SCc2ccccc2)nc2c1CCC2 | -1.06%
28 | CCOP(=O)(/C(=C(\NC(=O)c1ccccc1)C(=O)N1CCOCC1)c1ccccc1)c1ccccc1 (stereo not shown) | 3.65%
29 | COC(=O)c1cc(S(=O)(=O)N2CCN(C(c3ccc(F)cc3)c3ccc(F)cc3)CC2)c[nH]1 | 7.12%
30 | O=C(COc1ccccc1)NCCCc1nc2ccccc2n1Cc1ccccc1F | 5.4%
31 | O=C(ON1C(=O)CCC1=O)c1cc(N2C(=O)c3ccccc3C2=O)ccc1Cl | -2.83%
32 | OCC1CCCN(Cc2ccsc2)C1 (stereo not shown) | 0.135%
33 | Cc1nc2c(nnn2Cc2ccccc2)c(=O)n1C | 4.19%
34 | CC(C)C[C@H](NC(=O)c1ccc(-c2ccsc2C#N)cc1)C(=O)NCC#N | 1.16%
35 | CC1(C)CC2=Nc3ccccc3NC(c3cccc(C(F)(F)F)c3)C2=C(O)C1 (stereo not shown) | -5.73%
36 | CC(=O)c1cccc(NC(=O)Nc2ccc(Cl)cc2)c1 | 1.25%
37 | COc1ccc(-c2nc(-c3ccncc3)no2)cc1 | -1.66%
38 | CC(C)C[C@H](NC(=O)c1ccc(NC(=O)OC(C)(C)C)cc1)C(=O)NCC#N | -1.41%
39 | COCCN1C=C(C(=O)OC)C(c2ccc(O)cc2)C(C(=O)OC)=C1 | -5.01%
40 | CCn1c(C(=O)NCc2ccc(F)cc2)cc2sccc21 | -3.08%
41 | COc1ccc(/C=C(/C(=O)c2ccc(Cl)cc2Cl)n2cncn2)cc1OC | 0.00706%
42 | CCOC(=O)c1cnc(Nc2nc3ccccc3o2)nc1CSc1nc2ccccc2s1 | 0.628%
43 | c1ccc(CCN2CCC(N3CCC(Cc4ccccc4)CC3)CC2)cc1 | -0.0908%
44 | c1ccc(Cn2ncc3c2ncn2nc(CSc4nc5ccccc5s4)nc32)cc1 | -2.14%
45 | CC(C)C[C@@H](CN1CC[C@@H](NC(=O)[C@H](CC(C)C)NC(=O)OCc2ccccc2)C1)NC(=O)OCc1ccccc1 | -0.778%
46 | CCOc1ccc(-c2noc(CCC(=O)O)n2)cc1 | -2.4%
47 | Cc1ccc(-c2cc(C(=O)NCc3cccnc3)no2)cc1 | 3.54%
48 | O=[N+]([O-])c1ccc(C2Sc3ccccc3N=C3C2=C(O)c2ccccc23)cc1 (stereo not shown) | -2.32%
49 | CCCc1nn(C)c2c(O)nc(-c3cc(S(=O)(=O)Nc4ccccc4)ccc3OCC)nc12 | -1.89%
50 | CCCc1[nH]nc2c1C(c1c(C)nn(-c3ccccc3)c1Cl)C(C#N)=C(N)O2 (stereo not shown) | -0.759%

Row | Structure (SMILES) | % Inhibition @ 10 uM
51 | CC(=O)Nc1sccc1C(=O)Nc1ccccc1 | -1.04%
52 | COc1ccc(-c2noc(CN(C(=O)c3c(-c4ccccc4Cl)noc3C)C(C)C)n2)cc1 | -0.683%
53 | O=[N+]([O-])c1ccc(CN2CCN(c3ccc(F)cc3)CC2)o1 | -1.98%
54 | COc1ccc(CNc2ncnc3onc(-c4ccc(Cl)cc4)c23)cc1 | 0.945%
55 | CC(=O)NCCSCCNC(C)=O | 4.73%
56 | C=C(C)c1cccc(C(C)(C)NC(=O)NC23CC4CC(CC(C4)C2)C3)c1 | -5.85%
57 | NC(=O)c1c(NC(=O)c2ccc(Cn3cc(Cl)cn3)cc2)sc2c1CCCC2 | 5.66%
58 | COc1cccc(NC(=O)CN(c2cccc(F)c2)S(C)(=O)=O)c1 | 2.19%
59 | Cc1ccc(-c2nc(CS(=O)(=O)CC(=O)N3CCOCC3)c(C)o2)cc1 | -1.89%
60 | CCCOc1ccc(C(=O)Nc2c(O)oc3ccccc3c2=O)cc1 | -1.68%
61 | Clc1ccc(COc2ccccc2CNCc2cccnc2)cc1 | -6.02%
62 | Cc1cc(C(=O)Nc2cccc(F)c2)c(C)o1 | 11.2%
63 | COc1ccc(CNC(=O)C2CC(c3ccccc3F)=NO2)cc1 (stereo not shown) | -3.94%
64 | COc1cc(C(=O)Nc2cccc(Cl)c2)cc(OC)c1OC | -3.57%
65 | O=C(c1ccc(Cl)cc1)N(Cc1ccco1)C1CCS(=O)(=O)C1 (stereo not shown) | -1.11%
66 | CN1CCN(Cc2nnc(S)n2-c2cccc3ccccc23)CC1 | 2.6%
67 | N#Cc1ccc(C(=O)Nc2ccc(N3CCCCC3)c(Cl)c2)c(F)c1 | -12.5%
68 | N#CCc1nc(-c2ccc(Br)cc2)cs1 | -1.69%
69 | NC(=O)c1ccc(NC(=O)c2cc3ccccc3cc2O)cc1 | 2.6%
70 | COc1ccc(NC(=O)c2cccc(C)c2)c(OC)c1 | -2.6%
71 | COc1ccc(/N=C2/S/C(=C\c3cc(Br)ccc3OCC(=O)O)C(=O)N2C)cc1 | 8.18%
72 | CCOC(=O)C1=C(CS(=O)(=O)c2ccc(F)c(C)c2)NC(=O)NC1c1ccc(C(C)C)cc1 (stereo not shown) | 4.41%
73 | CC1CC(O)(C#CC2(O)CC(C)SC3CCCCC32)C2CCCCC2S1 (stereo not shown) | 1.7%
74 | Cc1ccc(S(=O)(=O)c2nc(S(C)(=O)=O)sc2NCc2ccco2)cc1 | -2.25%
75 | O=C(NCC1CCCO1)c1cc(-c2ccccn2)nc2ccc(S(=O)(=O)N3CCOCC3)cc12 (stereo not shown) | 3.66%

Row | Structure (SMILES) | % Inhibition @ 10 uM
76 | COCc1cc(C)nc(SCC(=O)Nc2ccccc2OC)c1C#N | 1.02%
77 | COc1ccc(S(=O)(=O)N(CC(=O)Nc2ccc(F)cc2)c2cc(C)cc(C)c2)cc1OC | -0.796%
78 | CC(C)CC(=O)NC(=C(Cl)Cl)S(=O)(=O)c1ccccc1 | -6.27%
79 | COCCCN1C(=O)C(O)=C(C(=O)c2ccc(OC)cc2)C1c1ccc(Cl)cc1 (stereo not shown) | 3.53%
80 | COc1cc(C2C(C(=O)c3cccs3)=C(O)C(=O)N2Cc2cccnc2)ccc1O (stereo not shown) | -1.25%
81 | CCN1C(=O)c2ccc(-c3nc4ccccc4s3)cc2C1=O | 15.7%
82 | CCOc1cccc(C2CC(=O)Nc3cc4c(cc32)OCO4)c1 (stereo not shown) | 0.475%
83 | Cc1cc(C)n2nc(SCC(=O)NCCC(C)C)nc2n1 | -4.06%
84 | O=C(CN(c1ccccc1F)S(=O)(=O)c1ccccc1)NCc1ccccc1 | 0.324%
85 | CCOC(=O)C1CCN(Cc2ccc(SC)cc2)CC1 | -5.41%
86 | COCCN1C(=O)c2ccccc2C(C(=O)Nc2ccccn2)C1c1cccs1 (stereo not shown) | 2.46%
87 | Cc1cc(C)cc(NC(=O)c2cccnc2)c1 | -1.22%
88 | COCCN1C(=O)c2ccccc2C(C(=O)Nc2cccnc2)C1c1c[nH]c2ccccc12 (stereo not shown) | -4.03%
89 | N#CCNC(=O)[C@H](CC1CCCCC1)NC(=O)c1cc2ccccc2o1 | -0.214%
90 | CCn1cc(/C=C(\NC(=O)c2cc(OC)c(OC)c(OC)c2)C(=O)NCCCO)c2ccccc21 | 3.24%
91 | O=C(O)c1nn2c(c1Br)NC(c1ccccc1)CC2C(F)(F)F (stereo not shown) | -3.49%
92 | Cc1ccc(CNCc2c(C(=O)O)[nH]c3cc(C)ccc23)cc1 | 1.26%
93 | O=C(O)c1nccnc1C(=O)Nc1nccs1 | -4.74%
94 | CC(=O)c1ccccc1OCC(O)Cn1cnc2cc(C)c(C)cc21 (stereo not shown) | 2.31%
95 | CC(C)CC(=O)Nc1nnc(S(=O)(=O)N2CCCCC2)s1 | 1.68%
96 | C=CCSC1=C(C#N)C(C)(C)C(C#N)C(=O)N1 (stereo not shown) | -2.51%
97 | Cc1ccc(Cl)cc1-n1ncc2c(NCc3ccco3)ncnc21 | -5.19%

Reference: article PMC6919601, “Identification of Plasmodium dipeptidyl aminopeptidase allosteric inhibitors by high throughput screening” (PLoS ONE, 2019)
